Source: PubChem BioAssay AID624296 (National Center for Advancing Translational Sciences (NCATS), 2012)
Values joined by “and” are separate entries in the source; they are usually repeats but may differ in a detail not shown here. Equal entries are not always repeated. Hit rate of the full screen: of about 350,000 compounds, about 9,900 (2.8%) were called active. This list was built around the results that the source calls inconclusive (neither active nor inactive); the mix of calls is not that of the screen. Calls come from the whole dose curve; as a rule, active = well fitted activation curve with a large enough effect; inconclusive = small, poorly fitted or top-dose-only effect; inactive = no such curve, though single readings can be large or run the other way. A potency beside an inconclusive call is a rough fit, not a confirmed value.

experiment: A quantitative high throughput screen for small molecules that induce DNA re-replication in MCF 10a normal breast cells.; note: nearly all actives have a fitted effect of over 50% in size; conditions: MCF 10A DNA re-replication, Hoechst nuclear intensity, 48 h; series mostly up to 46.1 µM
Potency is the fitted concentration of half-maximal effect; tags give direction and shape of the fitted curve.

SMILES	Potency
CCOC(=O)C1(CCOc2ccccc2)CCN(Cc2ccc(O)cc2)CC1	inconclusive: 20.6 µM [activator, partial curve, poor fit]
Cc1ccc(/C=C/c2nc3ccccc3c(=O)n2CCc2ccccc2)cc1	inconclusive: 9.2 µM [activator, partial curve, poor fit]
CCCCOc1cc(C)nc(NCc2ccccc2)n1	inconclusive: 25.9 µM [activator, single point]
COc1ccc(C2C(C#N)=C(N)Oc3cc(C)n(Cc4ccncc4)c(=O)c32)cc1 (stereo not given)	inactive
O=C1CSC(=S)N1Cc1cccs1	inconclusive: 29.1 µM [activator, single point]
Cc1ccc2c(C(=O)N3CCN(c4ccccc4)CC3)cc(-c3cccnc3)nc2c1C	inconclusive: 29.1 µM [activator, single point]
CC(=O)Nc1ccc(SCC(=O)NC(=O)c2ccc(S(=O)(=O)N(C)C)cc2)cc1	inactive
COc1ccc(-c2c(C#N)c(N)nc3sc(C(=O)c4ccccc4)c(N)c23)cc1	inconclusive: 2.06 µM [activator, full curve, poor fit]
COCCn1c(N)c(C(=O)NCc2cccs2)c2nc3ccccc3nc21	active: 8.2 µM
CCSC1=C(C#N)C(c2ccc(Cl)cc2)C2=C(CCCC2=O)N1 (stereo not given)	inconclusive: 13 µM [activator, partial curve]
Cc1ccc(/C=N/NC(=O)c2csc3c2CCCC3)cc1	active: 1.3 µM
CCOc1cc(/C=N\NC(N)=O)cc(Br)c1OC(C)C	inconclusive: 23.1 µM [activator, partial curve, poor fit]
CCOc1ccc(C(=O)NC(=S)Nc2cccc(S(=O)(=O)NC3=NCCC3)c2)cc1	active: 2.59 µM
Cc1c(CCC(=O)NCCCCCC(=O)O)c(=O)oc2c(C)c3oc4c(c3cc12)CCCC4	inconclusive: 20.6 µM [activator, partial curve, poor fit]
CCCCn1c(=S)[nH]c2cc(S(=O)(=O)N3CCOCC3)ccc21	inactive
O=C(Nc1cccc(S(=O)(=O)N2CCCC2)c1)c1ccc(Cl)nc1	inconclusive: 29.1 µM [activator, single point]
COC(=O)c1c(NC(=O)C2(C)Cc3ccccc3C(=O)O2)sc2c1CCCC2 (stereo not given)	inconclusive: 16.4 µM [activator, partial curve, poor fit]
O=C(Cc1ccc2c(c1)CCCC2)Nc1ccc2ccccc2c1	inconclusive: 6.51 µM [activator, single point]
CCCOC(=O)Nc1cc(OC)c(Cl)cc1OC	inconclusive: 29.1 µM [activator, single point]
CC1=NN(C(=O)c2c(Br)cnn2C)C(O)(C(F)(F)F)C1 (stereo not given)	inactive
COc1ccc(NC(=O)CSc2n[nH]c(-c3ccco3)n2)cc1	inconclusive: 5.8 µM [activator, single point]
Cc1ccc(Sc2c(C)nn(C(=O)CNS(=O)(=O)c3ccc(F)cc3)c2C)cc1	inconclusive: 29.1 µM [activator, single point]

SMILES	Potency
CCCOc1ccc(NC(=O)CC2C(=O)Nc3ccccc3N2CC(=O)N2CCCC2)cc1 (stereo not given)	inconclusive: 18.4 µM [activator, partial curve, poor fit]
Cc1cc2nc(-c3ccc(SCC(=O)Nc4ccc(S(=O)(=O)NC5CC5)cc4)nc3)[nH]c2cc1C	active: 20.6 µM
O=C(c1cc(N2CCOCC2)c(F)cc1[N+](=O)[O-])N1CCOCC1	inconclusive: 4.11 µM [activator, single point]
CCCc1cc(=O)oc2cc(OCC(=O)NC3CC(C)(C)NC(C)(C)C3)ccc12	inconclusive: 16.4 µM [activator, partial curve, poor fit]
CCOc1ccc(N=C2SC(C(=O)Nc3ccccc3C#N)C(N)=C2C(=O)Nc2ccc(Cl)cc2)cc1 (stereo not given)	inconclusive: 29.1 µM [activator, single point]
CCC(C)c1ccccc1N1CC(C(=O)NCCc2ccc(OC)c(OC)c2)CC1=O (stereo not given)	inactive
CCOC(=O)c1c(C)[nH]c(C(=O)COC(=O)c2oc3ccccc3c2C)c1C	inactive
COc1ccccc1C(=O)Nc1ccnn1C1CCN(C/C=C/c2ccc(F)cc2)CC1	inactive
O=C1C=CC(=O)N1c1cccc(-c2ccccc2)c1	active: 20.6 µM
CCCc1nc2ccccc2c(C(=O)OCC(=O)Nc2cccc(S(=O)(=O)N3CCOCC3)c2)c1CC	inconclusive: 20.6 µM [activator, partial curve, poor fit]
CCCCN=c1sc(C(=O)OC)cc(=O)n1CCCC	inconclusive: 29.1 µM [activator, single point]
Cc1nn(Cc2c(Cl)cccc2Cl)c(C)c1NC(=O)c1cnn2c(C(F)F)cc(-c3ccccc3)nc12	inconclusive: 18.4 µM [activator, partial curve]
Cc1ccc(C(=O)N2CCN3C(=O)c4ccccc4C23c2ccc(Cl)cc2)cc1 (stereo not given)	inconclusive: 20.6 µM [activator, single point]
COc1ccccc1N(C)S(=O)(=O)c1ccc(C(=O)N(C)Cc2ccc(Cl)s2)cc1	active: 25.9 µM
Cc1ccccc1NC(=S)NCc1ccc2c(c1)cc(C)n2C	inconclusive: 1.84 µM [activator, full curve, poor fit]
C=C1C(=O)O[C@@]23[C@H]1CC[C@@H](C)[C@@H]2CC[C@@]1(C)O[C@@H]31	inconclusive: 18.4 µM [activator, single point]
COc1ccc(N2CC(C(=O)N(CC(C)C)c3c(N)n(Cc4ccccc4)c(=O)[nH]c3=O)CC2=O)c(OC)c1 (stereo not given)	inactive
N#Cc1ccc(C23OCCN2CCn2c3c3ccccc3[n+]2[O-])cc1 (stereo not given)	inconclusive: 2.91 µM [activator, full curve]
O=C(CSCc1ccccc1)NNc1c(F)c(F)cc(F)c1F	inactive
Cc1cc(C)n(CCc2nc(-c3ccc(F)cc3)cs2)n1	inconclusive: 32.6 µM [activator, partial curve, poor fit]
COCCCNC(=S)Nc1ccc(N2CCCCC2)cc1	inactive
O=C(Nc1ccccc1)c1ccccc1NC(=O)C1CCCCC1	inconclusive: 12.6 µM [activator, single point]

SMILES	Potency
CN(C)c1cc(-c2ccccc2)nc(N)n1	inconclusive: 14.6 µM [activator, partial curve, poor fit]
COC(=O)[C@]1(C)N[C@H](CN(C)S(=O)(=O)c2ccc(F)cc2)[C@@H]2C(=O)N(C)C(=O)[C@@H]21	inconclusive: 1.64 µM [activator, full curve, poor fit]
Cc1ccc2c(c1)sc(-c1ccc(N(C)C)cc1)[n+]2C	active: 11.6 µM
Cc1c(/C=N/n2cnnc2)c2ccccc2n1CCOc1ccccc1	inconclusive: 35.5 µM [activator, single point]
O=S(=O)(Nc1nc2ccccc2nc1Cl)c1ccc(Br)cc1	inconclusive: 20.6 µM [activator, single point]
CC#C[C@]1(O)CC[C@H]2[C@@H]3CCC4=CC(=O)CCC4=C3[C@@H](c3ccc(N(C)C)cc3)C[C@@]21C	inconclusive: 7.31 µM [activator, partial curve, poor fit] and inconclusive: 29.9 µM [activator, single point]
Cc1ccc(C(=O)N/C(=C/c2ccc(-c3ccc([N+](=O)[O-])cc3)o2)C(=O)NCCCN(C)C)cc1	inconclusive: 18.4 µM [activator, partial curve, poor fit]
COc1cc(C#Cc2c(-c3ccccc3)n(C)c3ccccc23)cc(OC)c1	inconclusive: 18.4 µM [activator, partial curve, poor fit]
CCOc1ccc(S(=O)(=O)N2CCCC(C(=O)NCC3CCCO3)C2)cc1 (stereo not given)	inactive
Cc1ccc2c(CN3CCN(Cc4ccccc4)CC3)cc(=O)oc2c1	inactive
COc1cc(OC)c(-c2nc3ccccc3s2)cc1OC	inconclusive: 13 µM [activator, single point]
COC(=O)Cn1ccc(-c2ccc(Cl)cc2)c(C#N)c1=O	inactive
CN(C)S(=O)(=O)c1cccc(NC(=S)Nc2cc(Cl)cc(Cl)c2)c1	inactive
NC(=O)CC(NC(=O)c1ccc(Cl)cc1)C(=O)NCCc1ccc(S(N)(=O)=O)cc1 (stereo not given)	inconclusive: 29.1 µM [activator, single point]
Cc1cc(C(=O)CN2C(=O)C3CC=CCC3C2=O)c(C)n1-c1ccccc1 (stereo not given)	inconclusive: 18.4 µM [activator, partial curve, poor fit]
COCCNC(=O)c1ccccc1NC(=O)CCSc1ccccc1	active: 1.3 µM
CCCC(C)NC(=O)Cc1ccccc1 (stereo not given)	inconclusive: 16.4 µM [activator, partial curve, poor fit]
COc1cc2c3nnc(-c4ccc(F)cc4)c-3cn(Cc3ccc(C)cc3)c2cc1OC	inconclusive: 0.58 µM [activator, partial curve, poor fit]
COc1ccccc1CCNC(=O)C(=O)NCC1OCCN1S(=O)(=O)c1ccc(Br)cc1 (stereo not given)	inconclusive: 29.1 µM [activator, single point]
Cc1cc(C)c(C)c(S(=O)(=O)N(C)C2CCN(C)CC2)c1C	inconclusive: 8.2 µM [activator, partial curve, poor fit]
Cc1cc(NC(=O)COC(=O)CCNS(=O)(=O)c2ccccc2)n(-c2ccccc2)n1	inactive
